# Results as given in article PMC4336329 (PLoS ONE, 2015).
# Hit rate of the full screen: of about 310,000 compounds, about 14,000 (4.5%) showed an effect of 50% or more. Effects have a minus sign here. The list shows a part of the results.
# Target: human ether-à-go-go-related gene (hERG) potassium channel (human, UniProt Q12809)
# Assay: primary screen, population patch clamp on CHO cells stably expressing hERG
# 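Also: peak tail current of the secondary pulse compared with the same well before compound.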
# Chain of human ether-à-go-go-related gene (hERG) potassium channel (Q12809 whole entry, looked up): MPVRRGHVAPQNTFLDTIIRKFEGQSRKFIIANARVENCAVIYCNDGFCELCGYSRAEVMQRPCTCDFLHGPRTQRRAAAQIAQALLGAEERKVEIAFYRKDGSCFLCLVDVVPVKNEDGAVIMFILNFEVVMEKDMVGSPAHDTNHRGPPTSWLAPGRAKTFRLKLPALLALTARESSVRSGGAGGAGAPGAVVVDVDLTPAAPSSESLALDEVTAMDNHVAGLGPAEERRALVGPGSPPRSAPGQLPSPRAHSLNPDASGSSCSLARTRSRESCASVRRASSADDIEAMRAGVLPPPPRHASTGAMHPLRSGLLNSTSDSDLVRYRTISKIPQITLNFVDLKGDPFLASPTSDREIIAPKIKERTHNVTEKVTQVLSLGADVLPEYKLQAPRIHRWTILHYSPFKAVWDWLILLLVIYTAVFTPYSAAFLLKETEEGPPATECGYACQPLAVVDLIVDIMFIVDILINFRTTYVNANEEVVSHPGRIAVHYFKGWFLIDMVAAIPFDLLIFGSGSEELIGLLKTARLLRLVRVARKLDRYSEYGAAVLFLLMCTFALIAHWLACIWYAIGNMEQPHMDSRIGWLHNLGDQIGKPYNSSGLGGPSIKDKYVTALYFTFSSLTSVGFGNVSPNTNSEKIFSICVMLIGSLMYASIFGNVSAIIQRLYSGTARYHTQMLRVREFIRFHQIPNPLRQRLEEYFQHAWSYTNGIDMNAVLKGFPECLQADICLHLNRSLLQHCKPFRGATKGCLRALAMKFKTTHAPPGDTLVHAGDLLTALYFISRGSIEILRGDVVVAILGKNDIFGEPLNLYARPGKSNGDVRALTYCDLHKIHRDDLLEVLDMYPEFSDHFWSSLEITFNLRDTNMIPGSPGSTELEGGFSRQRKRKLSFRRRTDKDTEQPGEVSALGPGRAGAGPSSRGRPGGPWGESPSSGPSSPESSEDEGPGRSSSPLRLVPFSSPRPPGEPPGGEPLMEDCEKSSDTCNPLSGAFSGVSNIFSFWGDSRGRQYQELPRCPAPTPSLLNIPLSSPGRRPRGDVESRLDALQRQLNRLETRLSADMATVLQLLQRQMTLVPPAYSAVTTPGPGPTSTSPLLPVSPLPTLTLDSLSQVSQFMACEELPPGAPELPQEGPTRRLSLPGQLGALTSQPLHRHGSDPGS
row,SMILES,"hERG current change (%, negative = inhibition) at 10uM"
1,N/C(=N\OC(=O)c1cccc2ccccc12)c1ccncc1,-2.64%
2,Cc1nn(Cc2c(F)c(F)c(F)c(F)c2F)c(C)c1NC(=O)c1nn(C)cc1[N+](=O)[O-],-3.38%
3,FC(F)(F)c1cccc(Cn2nnnc2-c2ccc(Cl)cc2)c1,12.6%
4,Nc1nccc(-c2cccs2)n1,12%
5,COc1ccc(-c2cc(C(=O)OCC(=O)Nc3ccc4c(c3)OCO4)c3ccccc3n2)cc1,-8.35%
6,CC1CCN(C(=O)c2ccc(S(=O)(=O)N3CCOCC3)cc2)CC1,24.9%
7,Cn1c(SCC(=O)NC2CCCCC2)nnc1-c1ccccc1F,11%
8,CCN1CCN(C(c2cc3cccc(C)c3[nH]c2=O)c2nnnn2Cc2ccccc2)CC1 (stereo not shown),-16.4%
9,Cc1cccc(C)c1OCc1cc(C(=O)NCc2cn(C)nc2C)no1,-10.5%
10,CCCC(=O)Nc1cc(Cl)ccc1N1CCN(C(=O)CC)CC1,-33.1%
11,C=CCNC(=O)c1c(N)n(Cc2ccco2)c2nc3ccccc3nc12,-0.79%
12,O=C(CCN1C(=O)c2ccccc2C1=O)NC1=NCCS1,14.8%
13,COC(=O)c1n[nH]n(-c2cc(Cl)cc(Cl)c2)c1=O,14.6%
14,O=C(N/N=C/c1ccc(OCc2ccccc2)cc1)c1ccncc1,13.3%
15,Cc1nnc(NC(=O)CSc2nnc(Cc3cccn3C)n2-c2cccc(C(F)(F)F)c2)s1,9.56%
16,CCOc1cc(CNCCc2ccc(S(N)(=O)=O)cc2)ccc1OCc1ccc(Cl)cc1.Cl,-18.5%
17,Cc1ccc(-c2csc3nc4ccc(C(=O)NCCO)cc4c(=O)n23)cc1,12.1%
18,Cc1cc(/C=N/NC(=O)c2cccc([N+](=O)[O-])c2)c(C)n1-c1ccc(Cl)cc1Cl,-1.61%
19,Cc1cc(C)cc(C(=O)NC(CC(N)=O)c2ccc(NCCN3CCCC3)c([N+](=O)[O-])c2)c1 (stereo not shown),10.5%
20,COc1cccc(N2CCN(C(=O)c3cc4c(=O)n(Cc5ccccc5)ccc4nc3C)CC2)c1,-49.8%
21,CCOC(=O)C1CC(c2ccccc2)=NNC1=O (stereo not shown),-37.6%
22,Cn1c(=O)c(Sc2ccccc2)c(O)c2ccccc21,17.1%

row,SMILES,"hERG current change (%, negative = inhibition) at 10uM"
1,Cc1ccc2cc3cc(C(=O)N4CCN(Cc5ccccc5)CC4)sc3nc2c1,17.6%
2,COc1ccc(/C=C(/NC(=O)c2ccccc2)C(=O)N2CCOCC2)cc1OC,22.2%
3,O=C(c1cc2c(=O)n3ccccc3nc2s1)N1CCN(Cc2ccccc2)CC1,-27.7%
4,Cc1cc(C)cc(C(=O)NC(CC(N)=O)c2ccc(N3CCN(c4ccccn4)CC3)c([N+](=O)[O-])c2)c1 (stereo not shown),15.7%
5,COc1ccc(CNc2nc(NCc3ccc(OC)cc3)n(S(C)(=O)=O)n2)cc1,-12.8%
6,COc1cc(C(=O)NCCN2CCOCC2)cc(OC)c1OC,8.25%
7,CCn1c(C)cc(C(=O)CSc2nnnn2C2CCCC2)c1C,-53.5%
8,CCC(C)NC(=O)CSc1c2c(nc3ccccc13)CCCC2 (stereo not shown),-7.98%
9,CCC(CC)c1nnc(NC(=O)CN2C(=O)C3C4C=CC(C4)C3C2=O)s1 (stereo not shown),8.97%
10,O=C(CN1CCN(c2cccc(Cl)c2)CC1)Nc1ccc([N+](=O)[O-])cc1C(=O)Nc1ccccc1F,14.4%
11,CCCCC(=O)NCCc1cc2c(OC)ccc(OC)c2[nH]c1=O,4.53%
12,CN(C)c1cc[n+](CC(=O)c2ccc(-c3ccccc3)cc2)cc1.[Cl-],-2.97%
13,CC(=O)Nc1ccc(S(=O)(=O)N2CCN(C(=O)c3ncoc3-c3cccc(C)c3)CC2)cc1,-14%
14,O=C(NCC(c1cccnc1)N1CCN(c2ccccc2F)CC1)c1ccco1 (stereo not shown),-0.92%
15,COc1ccccc1NC(=O)C(=O)NCC1COc2ccccc2O1 (stereo not shown),6.4%
16,CC(=O)c1c(N2CCN(c3ccc(F)cc3)CC2)nc(=S)n(-c2ccccc2)c1C,-75%
17,Cc1cc(NC(=O)c2ccc(F)cc2)ccc1NC(=O)c1ccco1,2.98%
18,Cc1ccc(NP(=O)(c2ccc(N(C)C)cc2NC(=O)c2cccs2)N2CCOCC2)cc1 (stereo not shown),-2.84%
19,O=C(COC(=O)c1ccc2[nH]c3c(c2c1)CCCC3)Nc1ccccc1,23.3%
20,CCN(CC)C(=O)C(=O)N/N=C/c1ccc(F)cc1,18.7%
21,COc1cccc(/C=N/Nc2ccc(C(=O)O)cc2)c1O,2.34%
22,C/C(=N\NC(=O)CNc1cccc(C(F)(F)F)c1)c1ccc(Br)cc1,7.43%

row,SMILES,"hERG current change (%, negative = inhibition) at 10uM"
1,CCn1c(SCC(=O)NC2CC2)nnc1-c1cccc(OC)c1,-66.6%
2,Cc1ccccc1C(=O)NC1CCN(CC(=O)Nc2c(C)cccc2C)CC1,-3.3%
3,O=C(CSc1nnc(CN2CCOCC2)n1-c1ccccc1)N1CCc2ccccc21,-2.94%
4,COc1ccccc1C(=O)NC(CCSC)C(=O)N1CCN(C/C=C/c2ccccc2)CC1 (stereo not shown),-109%
5,CC(CO)(CO)N=Cc1c(O)n(-c2cccc3ccccc23)c(=O)[nH]c1=O,18%
6,O=C(NNC(=O)c1cc(OCC(F)(F)F)ccc1OCC(F)(F)F)c1ccc(Cl)c(Cl)c1,15.8%
7,COc1cc(NC(=O)COC(=O)CCc2cc(OC)c(OC)c(OC)c2)cc(OC)c1,11.9%
8,CCC(=O)Nc1cc(C(=O)NCC2CCCN2CC)c(OC)cc1N(C)C (stereo not shown),-10.4%
9,C1=C(CCNCc2ccccc2)CCCC1.Cl,5.16%
10,Cc1ccc(CNc2nc3ccccc3n2C)cc1,-24.7%
11,COc1ccc(NC(=O)C23CC4CC(C2)CC(n2cnc(Br)n2)(C4)C3)c(C)c1,-9.06%
12,CCN1C(=O)[C@H]2[C@@H](c3ccc(C)cc3)N3C(=O)N(c4ccccc4)C(=O)[C@@]3(Cc3ccccc3)[C@H]2C1=O,-17.3%
13,CN(Cc1ccccn1)C(=O)C1CCC(=O)N(Cc2cccc(F)c2)C1 (stereo not shown),6.47%
14,COc1cccc(NC(=O)c2ccc(NC(=O)C(C)C)cc2)c1,11.7%
15,Cc1ccc(OC(F)F)c(NC(=O)Nc2ccc3c(c2)OCO3)c1,-0.45%
16,CC(=O)Nc1ccc(OC/C=C(\C)Cl)cc1,2.75%
17,CN(C)C(CNC(=O)c1cc(Br)ccc1Cl)c1ccco1 (stereo not shown),3.01%
18,Cc1cc(C(=O)CN2C(=O)CN(C)C2=O)c(C)n1-c1cccc(S(=O)(=O)N2CCOCC2)c1,-49.8%
19,COc1cccc(/C=C/C(=O)OCC(=O)Nc2cc(C(F)(F)F)ccc2Cl)c1,8.14%
20,O=C(Nc1ccccc1N1CCOCC1)c1cnccn1,-11%
21,CC(=O)c1cc(C(=O)Nc2ccc3ccccc3c2)c(C)o1,13.8%
22,COc1ccc(-n2cc(C(=O)Nc3cc([N+](=O)[O-])ccc3OC)c3ccccc3c2=O)cc1,19.3%

row,SMILES,"hERG current change (%, negative = inhibition) at 10uM"
1,COc1ccc(NC(=O)CN(C)S(=O)(=O)c2cnc[nH]2)cc1,20.3%
2,COC(=O)c1ccc(CNC(=O)c2c3c(nc4ccccc24)CCN(Cc2ccccc2)C3)cc1,-16.1%
3,CN(C)S(=O)(=O)c1ccc(N2CCCC2)c(C(=O)NNC(=O)COc2ccc(Cl)cc2)c1,-17.7%
4,Cc1cc(C=O)c(C)n1C(C)C,22.6%
5,CC(C(=O)c1ccccc1)n1c(N2CCOCC2)nc2c1c(=O)n(C)c(=O)n2C (stereo not shown),7.89%
6,Cc1ccc2c(CN3CCN(C(=O)c4ccco4)CC3)cc(=O)oc2c1C,-48.6%
7,CCSc1nnc(NC(=O)c2csc3c2CCC(C)C3)s1 (stereo not shown),-8.63%
8,CN(CCCN1CCOCC1)C(=O)c1ccc2nc(Cc3cccc(Cl)c3)oc2c1,-6.26%
9,CCc1nnc(NC(=O)C(CC)c2ccccc2)s1 (stereo not shown),-3.53%
10,O=S(=O)(NC1CC1)c1ccc(S(=O)(=O)N2CCCc3ccccc32)cc1,-12.3%
11,N#Cc1ccc(/C=C\c2nccc3c2[nH]c2ccccc23)cc1,-3.5%
12,Cc1c(N2C(=O)C3C4C=CC(C5CC45)C3C2=O)c(=O)n(-c2ccccc2)n1C (stereo not shown),3.84%
13,CC(C)c1ccc(N(C(=O)c2cc3ccccc3oc2=O)C2C=CS(=O)(=O)C2)cc1 (stereo not shown),-4%
14,CN(C(=O)COC(=O)c1cc([N+](=O)[O-])ccc1N1CCCC1)C1CCS(=O)(=O)C1 (stereo not shown),19.1%
15,N#C/C(=C/c1ccc(C(=O)O)cc1)C(=O)Nc1ccccc1,21.1%
16,CC(/C=N/n1c(-c2ccccn2)n[nH]c1=S)=C\c1ccccc1,-16.7%
17,CCN(CC(=O)Nc1ccc2c(c1)OCCO2)Cc1cc(=O)oc2c(C)c(C)ccc12,-40.3%
18,CC(C)(C)C(=O)Nc1nnc(SCC(=O)NC2CCCCC2)s1,2.34%
19,CC[n+]1c(C)sc2c3ccsc3ccc21.[I-],6.06%
